# According to PubChem BioAssay AID445 (National Center for Advancing Translational Sciences (NCATS), 2006):
# Among all 110,000 compounds or so, about 40 (0.04%) were called active. The shares of active, inactive and inconclusive entries below differ from those in the screen. Calls follow the shape of the dose curve; as a rule, active = well fitted curve in the direction sought with a large enough effect in the signal ratio (not every such curve was filed as active); inconclusive = small, poorly fitted or top-dose-only effect, or a change in a side signal; inactive = flat fitted curve, though single readings scatter; the % refers to the signal ratio. Where the call is inconclusive, the potency comes from a doubtful curve fit.
# Assay: IkB Signaling;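 as to IkBa stabilization activation: 0% = basal untreated cells and 100% = reference inhibitor full response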
# Details: ABC-DLBCL IkBa-CBG/CBR dual luciferase ratio (green luciferase fused to IkBa over red control in OCI-Ly3 lymphoma cells), 4 h; IkBa stabilization activation: at 57.1 µM (top of the series), scaled: untreated 0%, proteasome inhibitor 100% unless noted
# How it was run: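 In this assay, an IκBα–CBG68 fusion accumulates when IKK-driven degradation is blocked; native CBR normalizes for cell number. OCI-Ly3 cells were treated 4 h with compound and doxycycline, then green and red light read after Chroma-Glo addition.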
# Potency is read from the fitted curve at half-maximal effect.
SMILES,IkBa stabilization activation,Potency
COc1cccc(NC(=O)CCc2nc(-c3cc(OC)c(OC)c(OC)c3)no2)c1,inconclusive: 16.3% [signal inhibitor],–
CCOC(=O)c1ccc(NC(=O)c2cc3c(=O)n(C)c4ccccc4c3n2C)cc1,inconclusive: 4.15% [signal inhibitor],–
COc1cc2c(C(=O)N3CCN(c4ccc(C)cc4)C(C)C3)cn(CC(C)C)c(=O)c2cc1OC (centres undefined),inconclusive: 3.05% [signal inhibitor],–
Cn1c2ccccc2c2cc(C(=O)OCC(=O)N3CC(=O)Nc4ccccc43)sc21,inconclusive: 6.26% [signal inhibitor],–
COc1ccc(N2CCN(C(=O)Cc3noc4ccc(C)cc34)CC2)cc1,inconclusive: 2.51% [signal inhibitor],–
CCc1ccc(NC(=O)Cn2ccn(-c3cccc(Cl)c3)c(=O)c2=O)cc1,inconclusive: 8.14% [signal inhibitor],–
Cn1c(C(=O)N2CCN(Cc3ccc4c(c3)OCO4)CC2)cc2c(=O)n(C)c3ccccc3c21,inconclusive: 5.92% [signal inhibitor],–
COc1ccc(/C=C/c2nc(C#N)c(NC3CCCCC3)o2)cc1OC,inconclusive: 4.97% [signal inhibitor],–
CCOc1ccc(S(=O)(=O)N(CC(=O)Nc2cc(C)on2)Cc2ccccc2Cl)cc1,inconclusive: 7.48% [signal inhibitor],–
CCc1cccc(C)c1Nc1c(-c2cccc(O)c2)nc2cnccn12,inconclusive: -2.77% [signal inhibitor],–
CCCc1ccc2c(N)c(C#N)sc2n1,inactive: -1.65%,–
CCOc1ccccc1NC(=O)Cn1nc2c3cc(F)ccc3n(Cc3cccc(C)c3)cc-2c1=O,inconclusive: 15.4% [signal inhibitor],–
CCC(=O)N1CCN(c2nc(C)nc3sc(C)c(C)c23)CC1,inconclusive: 4.57% [signal inhibitor],–
O=C(COC(=O)c1ccccc1Oc1ccccc1)NCc1ccco1,inactive: 2.77%,–
CC1CCCN(c2csc3ccccc3c2=O)C1 (centres undefined),–,"inconclusive: 31.6 µM [signal inhibitor, partial curve]"
CCCN(Cc1cccs1)C(=O)Nc1ccccc1C,inconclusive: 2.69% [signal inhibitor],–
O=C(CN1CCN(S(=O)(=O)c2ccc(Br)cc2)CC1)Nc1ccc(F)cc1F,–,"inconclusive: 15.8 µM [signal inhibitor, partial curve]"
O=c1/c(=C\c2ccc3c(c2)OCO3)sc2n1CCCN=2,–,"inconclusive: 20 µM [signal inhibitor, partial curve]"
COc1ccc(S(=O)(=O)NCCc2cn3ccsc3n2)cc1OC,inactive: -0.741%,–
CCOc1ccc(N(Cc2cc3cc(C)ccc3[nH]c2=O)C(=O)c2cccc(Cl)c2)cc1,inactive: -1.31%,–
Cc1nc2sccn2c(=O)c1S(=O)(=O)NCc1ccccc1,inconclusive: 12.5% [signal inhibitor],–
COc1ccc(Nc2nnc(-c3ccc(C)c(S(=O)(=O)N4CCN(C)CC4)c3)c3ccccc23)cc1,–,"inconclusive: 20 µM [signal inhibitor, single point]"

SMILES,IkBa stabilization activation,Potency
O=C(c1ccncc1)N1CCC2(CC1)CN(c1ncccn1)C2,"inactive: 0.777% [at 11.4 µM, scaled: untreated 0%, proteasome inhibitor 100%]",–
COc1ccc2sc(NC(=O)c3ccco3)nc2c1,–,"inconclusive: 6.31 µM [signal inhibitor, partial curve]"
Cc1ccc(C)c(N2CCN(C(=O)c3ccc4c(c3)c(C)c(C)n4C)CC2)c1,inconclusive: 3.4% [signal inhibitor],–
O=C(O)c1cc2c(s1)-c1ccccc1OC2,inactive: 2.48%,–
CCOc1ccccc1C1CC(=O)NC(C)=C1C(=O)OCc1ccc(C)cc1 (centres undefined),inconclusive: 9.67% [signal inhibitor],–
COC(=O)c1ccc(OC)c(CN2CCCN(Cc3ccc(C)cc3)S2(=O)=O)c1,inactive: -1.07%,–
C=C(C)COc1ccc(-c2nc(N)ncc2Oc2ccccc2OCC)c(O)c1,–,"inconclusive: 10 µM [signal inhibitor, partial curve]"
CCCCn1c(NC(=O)c2ccc(F)cc2)c(C#N)c2nc3ccccc3nc21,–,"inconclusive: 3.98 µM [rising, full curve]"
Cc1oc2c(c1C(=O)Nc1ccc(Cl)cc1F)C1=NCCN1C=N2,inconclusive: -2.02% [signal inhibitor],–
Cc1cccc(C)c1OCC(=O)N(Cc1ccc(Cl)cc1)CC1CCCO1 (centres undefined),inconclusive: 0.777% [signal inhibitor],–
COc1ccc(OC)c(CNC(=O)CCCn2nc(C)c3c(C)n(-c4ccc(C)cc4)nc3c2=O)c1,inconclusive: 1.93% [signal inhibitor],–
Cc1nc2ccc(Nc3nc4cc(S(=O)(=O)N5CCOCC5)ccc4o3)cc2s1,inactive: 1.91%,–
CCn1ccc2cc(S(=O)(=O)N3CCCN(C(=O)Nc4cc(Cl)ccc4C)CC3)ccc21,inconclusive: 0.203% [signal inhibitor],–
Cc1c(NC(=O)c2ccccc2N)cccc1C(=O)O,–,"inconclusive: 20 µM [rising, partial curve]"
C=CCOc1ccccc1/C=N/O,inconclusive: 0.741% [signal inhibitor],–
O=C(/C=C/Nc1ccc(F)cc1)c1ccco1,–,"inconclusive: 15.8 µM [signal inhibitor, partial curve]"
CCOc1ccc(-c2cc(NC(=O)c3ccc(C)cc3)c(C(=O)OC)s2)cc1,inactive: -0.618%,–
Cc1ccc(-c2nc(CS(=O)(=O)CC(=O)N3CC(C)CC(C)C3)c(C)o2)cc1 (centres undefined),inactive: 10.8%,–
COc1ccc2c(c1)-c1nc(NC(=O)c3ccc(C)cc3)sc1CC2,inconclusive: 8.22% [signal inhibitor],–
N#C/C(=C\c1c[nH]c2ccccc12)C(=O)c1ccc(O)c(O)c1,–,"inconclusive: 3.16 µM [signal inhibitor, full curve]"
CC1CCN(C(=O)c2cc(-c3cccc(Cl)c3)on2)CC1,–,"inconclusive: 10 µM [signal inhibitor, partial curve]"
Cc1cc(C(C)(C)C)c(OCCCN2CCOCC2)c(C(C)(C)C)c1,"inactive: -0.103% [at 11.4 µM, scaled: untreated 0%, proteasome inhibitor 100%]",–
